Structures are written as SMILES. “And” between values parts separate entries of the source, which are not always exact repeats. Equal entries are not always repeated. The whole screen tested about 340,000 compounds, of which about 6,900 (2%) were called active. Cut-off read from the data, not from the text of the source: active = inhibition above about 30%; inactive = below that, where a call was filed. This is a selection; strong and weak results do not stand in their true shares. The source gives no active or inactive call for entries shown without one.

This passage reports inhibition results from PubChem BioAssay AID485344 (National Center for Advancing Translational Sciences (NCATS), 2010).

Chain of UniProt P14416 (P14416 whole entry, looked up): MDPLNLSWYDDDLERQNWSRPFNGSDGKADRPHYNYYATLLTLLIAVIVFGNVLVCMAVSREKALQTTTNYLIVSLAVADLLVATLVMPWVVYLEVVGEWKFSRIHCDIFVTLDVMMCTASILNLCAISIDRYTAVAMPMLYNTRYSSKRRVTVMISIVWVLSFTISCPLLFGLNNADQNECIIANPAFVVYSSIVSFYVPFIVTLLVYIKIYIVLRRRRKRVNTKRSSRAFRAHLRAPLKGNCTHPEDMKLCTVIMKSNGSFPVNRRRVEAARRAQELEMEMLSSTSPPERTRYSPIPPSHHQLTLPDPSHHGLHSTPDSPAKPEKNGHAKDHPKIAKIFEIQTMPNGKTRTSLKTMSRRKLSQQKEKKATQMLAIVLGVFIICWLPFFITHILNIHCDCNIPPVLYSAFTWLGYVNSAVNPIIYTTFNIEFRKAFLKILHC

This assay deals with D(2) dopamine receptor (Homo sapiens) (UniProt P14416). Kind of assay: HTS Assay for Allosteric Antagonists of the Human D2 Dopamine Receptor: Primary Screen for Antagonists. Note: 0% is about no effect. The following applies: HEK293 TREx D2 cells, calcium flux, dopamine EC80; at 10 µM; stronger effect = higher value. In outline:
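Overnight-induced (tetracycline, 30 C) HEK293 T-REx cells carrying force-coupled D2 receive a no-wash calcium dye, then compound, then EC80 dopamine at 180 s; signals are read kinetically throughout.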
Usually inhibition stands for the relative decrease from the control value, in per cent. `N#C/C(=C/c1ccc(N2CCCCC2)o1)C(=O)Nc1ccc2ccccc2c1`: the inhibition was active: 47%.
For `CCCn1nnnc1NCc1ccc(C(C)C)cc1`, the inhibition is active: 33.9%.
Consider `Cc1cc(C(=O)Nc2c(C)cccc2C)n(-c2ccccc2)n1`, for which the inhibition was -4.06%.
For `COCCCNC(=O)c1ccc(Cn2c(SCc3ccc(F)cc3)nc3cccnc32)cc1`, the inhibition was -12.1%.
`O=C(OCc1cc(=O)n2nc(-c3cccs3)sc2n1)c1cccc(F)c1`: the inhibition stood at 11.3%.
With `CCOC(=O)c1sc2ncn(CC(=O)Nc3cc(Cl)ccc3C)c(=O)c2c1C` the figure was -6.11%; with `CCOC(=O)c1cc2c(=O)n3ccccc3nc2n(CC2CCCO2)c1=NC(=O)c1ccccc1Br` (stereo unspecified), -1.32%; with `Cc1cccc(NC(=O)CSc2ccc(-c3sc(-c4ccccc4)nc3C)nn2)c1C`, -11.8%.
As for `CC(=O)c1ccc(N2CCN(C(=O)c3cc(S(=O)(=O)N4CCCCCC4)cn3C)CC2)cc1`, the inhibition is 20.3%.
Take `CC(=O)Nc1cccc(NC(=O)CSc2nccn2Cc2ccc3c(c2)OCO3)c1`: the inhibition was 2.42%.
Turning to `O=C(NCCc1csc(-c2cccc(F)c2)n1)C(=O)Nc1cc(F)ccc1F`, the inhibition turned out to be 13.4%.
Then `COc1cccc(CNC(=O)C2CCN(S(=O)(=O)c3c(C)noc3/C=C/c3cccs3)CC2)c1`, with -0.621%; and `O=C(NCc1ccccc1)c1onc(CSc2ccccc2)c1C(=O)NCC1CC1`, with active: 38.8%; and `Cc1ccc(C)c(NC(=O)Cc2coc3cc(C)cc(C)c23)c1`, with -28.5%.
With `CCc1ccccc1NC(=O)Cn1nnc2sc3c(c2c1=O)CCC(C(C)(C)C)C3` (stereo unspecified), the inhibition was -12%.
Turning to `O=C(c1cc2ccc3cccnc3c2[nH]1)N1CCCCC1`, the inhibition stood at 5.89%.
Take `O=C(c1noc2c1CCCCC2)N1CCN(c2cccc(Cl)c2)CC1`: the inhibition worked out at 6.67%.
Regarding `Cc1ccc(NC(=O)N2CC3CCCN3c3ccccc32)cc1Cl` (stereo unspecified), the inhibition turned out to be 6.05%.
`CCN1CCN(c2nnc(-n3cccc3C(=O)NCc3ccccc3OC)s2)CC1`: the inhibition came to 13.6%.
Consider `O=C(Cn1ncc2c3ccccc3n(Cc3ccccc3F)c2c1=O)N1CCCCCC1`, for which the inhibition worked out at 1.92%.
In the case of `COc1ccccc1-n1c(SCC(=O)N2CCOCC2)nc2cccnc21`, the inhibition was active: 59.7%.
Take `CC(CCc1ccc(O)cc1)N1CCC(Oc2ccc(C(=O)N3CCCC3)cc2)CC1` (stereo unspecified): the inhibition was active: 39.1%.
In the case of `Cc1ccc(C(=O)Nc2nnc(S(=O)(=O)N(C)Cc3ccc(Cl)cc3)s2)cc1`, the inhibition was 1.21%.
For `COc1cc(Nc2ncc3c(n2)CCN(Cc2ccc(OC(C)C)c(OC)c2)C3)cc(OC)c1`, the inhibition is 16.7%.
As for `COc1ccc(NC(=O)c2csnn2)cc1Cl`, the inhibition is 1.35%.
Turning to `CCc1nn2c(=O)cc(COC(=O)c3ccc(NC(=O)COc4ccccc4C)cc3)nc2s1`, the inhibition is 2.1%.
Regarding `COc1ccccc1NC(=O)CSc1oc(-c2ccco2)nc1S(=O)(=O)c1ccc(C)cc1`, the inhibition was 15.1%.
Turning to `CCOc1ccc(NC(=O)c2oc3ccccc3c2NC(=O)C(C)(C)C)cc1`, the inhibition was -0.92%.
Regarding `CCOc1ccc2nc(N3CCCC(C(=O)Nc4ccc(OC)cc4)C3)sc2c1` (stereo unspecified), the inhibition is -2.24%.
Take `COc1ccc(CCNC(=O)c2c(O)nc3ccccn3c2=O)cc1OC`: the inhibition turned out to be 24.3%.
Then `O=C(CSc1nc2ccsc2c(=O)n1-c1ccc(Cl)cc1)NCc1ccc(Cl)cc1`, with 4.81%; and `CC1CCN(c2nc(-c3ccc(C(C)(C)C)cc3)nc3ccccc23)CC1`, with 14.1%.
With `CCC(=O)N1CCc2cc(S(=O)(=O)NCCC(=O)Nc3ccc(CC)cc3)ccc21`, the inhibition is -2.8%.
Then `CC(C)CNC(=O)Nc1cc(C(=O)NCc2ccc(C(C)C)cc2)ccc1N1CCCC1`, with 17.9%; and `CCOc1ccc(NC(=O)c2cc3cc(C)ccc3n2C)cc1`, with -11.5%; and `Clc1ccc(SCCOCCN2CCc3ccccc3C2)cc1`, with active: 49.8%.
In the case of `O=C(Nc1ccccc1-c1nc2ccccc2s1)c1ccc(F)cc1`, the inhibition is -6.98%.
For `Clc1ccc(-c2cc3ncc4c(n3n2)-c2ccccc2OC4)cc1`, the inhibition was -1.52%.
With `Cc1ccc(CN2CCCn3nc(C(=O)NCc4ccc(N(C)C)cc4)cc3C2=O)cc1` the figure was -26.6%; with `COc1ccc(CCNc2nc3c(-c4cccc(C(F)(F)F)c4)nnn3c3ccccc23)cc1OC`, -1.79%.
`Cc1ccc(C(=O)c2cn(Cc3ccccc3F)c3cc4c(cc3c2=O)OCCO4)cc1`: the inhibition was -17.1%.
Turning to `CN(C)CCNC(=O)c1ccc(Cn2c(SCc3ccc(F)cc3)nc3cccnc32)cc1`, the inhibition was 8.79%.
With `CCC(=O)Oc1cc(C(C)(C)C)cc2cc(-c3nc(-c4ccc(OC)cc4OC)no3)c(=O)oc12` the figure was 19.6%; with `CCOc1ccc(N(CC(=O)Nc2cc(OC)cc(OC)c2)S(=O)(=O)c2c(C)[nH]c(=O)[nH]c2=O)cc1`, 15.5%.
On to `N#C/C(=C\c1c(N2CCOCC2)nc2ccccn2c1=O)C(=O)NC1CCS(=O)(=O)C1` (stereo unspecified), for which the inhibition is active: 38.1%.
As to `O=C(c1cccs1)c1cn(CCOc2ccc(Cl)cc2)c2ccccc12`, the inhibition is -9.58%.
For the molecule `COc1ccc(Cl)cc1NC(=O)Cn1c(=O)oc2cc(S(=O)(=O)N3CCCCCC3)ccc21`, the inhibition stood at 9.45%.
With `CC1=C(C(N)=O)C(c2cccc(O)c2)n2ncnc2N1` (stereo unspecified) the figure was -2.35%; with `Cc1ccc2sc(N(Cc3cccnc3)C(=O)Cc3ccccc3)nc2c1C`, -17.7%; with `Cc1cccc(N2CCN(C(=O)CN3C(=O)COc4ccc(S(=O)(=O)N5CCC(C)CC5)cc43)CC2)c1C`, -8.05%.
In the case of `O=S(=O)(Nc1cccc(C(F)(F)F)c1)c1ccc(NS(=O)(=O)c2ccc3c(c2)OCCO3)cc1`, the inhibition was 18.5%.
As to `COc1ccc(C(=O)Nc2cccc(-c3cn4ccsc4n3)c2)c(OC)c1`, the inhibition is 3.38%.
Consider `COC(=O)c1ccccc1-c1c2ccc(=N)cc-2oc2cc(N)ccc12`, for which the inhibition was active: 76.9%.
Then `Cc1ccc(NC(=O)CSc2nc3ccccc3n2CC(=O)N2CCC(C)CC2)cc1C`, with 1.32%; and `Cc1csc2nc(COC(=O)c3cccc(NC(=O)c4cccc(Cl)c4)c3)cc(=O)n12`, with -9.75%.
Regarding `CCCN(c1ccc(C(C)C)cc1)S(=O)(=O)c1ccc2c(c1)n(C)c(=O)c(=O)n2C`, the inhibition was -11.7%.
For the molecule `CCc1nn(CC(=O)N2CCC(C)CC2)c(=O)c2cc3occc3n12`, the inhibition is 13.5%.
For `Cc1nc2ccn(Cc3cccs3)c(=O)c2cc1C(=O)NCc1ccc(Br)cc1`, the inhibition was determined as 9.63%.
Regarding `COc1ccc(OC)c(NC(=O)CSC2=Nc3ccccc3C3=NC(CCC(=O)NCc4ccccc4)C(=O)N23)c1` (stereo unspecified), the inhibition was -12.9%.
In the case of `O=C(COc1ccc(Cl)cc1)N(Cc1ccco1)Cc1ccco1`, the inhibition came out at 11.2%.
On to `Cc1c(C(=O)N(C)C)sc2c1c(=O)n(-c1ccc(Cl)c(Cl)c1)c(=O)n2CC(=O)C(C)(C)C`, for which the inhibition worked out at 6.9%.
Turning to `COc1ccc(S(=O)(=O)NC2CCCC2)cc1Br`, the inhibition is active: 30.9%.
Then `COc1ccccc1CNC(=O)CCC(=O)N1CC(C)Sc2ccccc21` (stereo unspecified), with 14.8% and active: 31.7%; and `COC(=O)c1ccc(NC(=O)CN2CCCN(Cc3ccc(Cl)cc3)S2(=O)=O)cc1`, with -8.83%.
In the case of `CCOCCCn1c(SCC(=O)Nc2cc(C)ccc2C)nc2c(oc3ccccc32)c1=O`, the inhibition was 5.79%.
Then `Cc1ccc(-c2nc3cc(NC(=O)c4cc5ccccc5o4)ccc3o2)cc1Cl`, with -23.6%; and `CCN1CCc2c(sc(NC(=O)c3ccc(S(=O)(=O)N(CCOC)CCOC)cc3)c2C(N)=O)C1`, with 15.2%; and `CN(C)CCNC(=O)c1ccc(-n2c(-c3ccccc3)cc3c2CCCCC3)cc1`, with 2.13%.
Consider `CC(C)Oc1ccc(CN2CCc3nc(Nc4ccc5c(c4)OCCO5)ncc3C2)cc1`, for which the inhibition was -14.9%.
Then `Cc1ccc(Sc2c(C(=O)NCc3cccc(F)c3)[nH]c3ccccc23)cc1`, with -14.1%; and `CC(NC(=O)CN1C(=O)COc2ccc(S(=O)(=O)N3CCCCCC3)cc21)c1ccccc1` (stereo unspecified), with 26.8%; and `O=C(c1sccc1Cl)N1CCN(Cc2ccc3c(c2)OCO3)CC1`, with active: 66.6%.
On to `COc1ccc(CCNC(=O)Cn2nnc(-c3ccc(Cl)cc3)n2)cc1OC`, for which the inhibition is -0.873%.
Then `Cc1ccc(CN(Cc2ccco2)C(=O)c2ccc(Cl)cc2Cl)cc1`, with -15.6%; and `O=C(CSc1ccc(-c2cccs2)nn1)Nc1ccccc1`, with -0.361%; and `Cc1cccc(NC(=O)CSc2ncc(-c3ccc(Br)cc3)[nH]2)c1`, with -15.3%.
With `COC(=O)COc1ccc2oc(=O)cc(-c3cc4cccc(OC)c4o3)c2c1` the figure was active: 46%; with `Cc1cccc(-c2nc(CCNC(=O)COc3ccccc3)cs2)c1`, -2.77%; with `CC(=O)c1cccc(NC(=O)Nc2c(C)n(C)n(-c3ccccc3)c2=O)c1`, -12.1%.
With `CO/N=C(/CS(=O)(=O)Cc1ccccc1Cl)c1ccc(Cl)cc1Cl`, the inhibition is active: 43.1%.
Take `COc1cccc(CNc2nc3ccccc3c3nc(-c4cccc(C)c4)nn23)c1`: the inhibition stood at 7.29%.
In the case of `COc1ccc(-c2cc(-c3ccccc3)nc(SCC(=O)Nc3ccccc3C)c2C#N)cc1`, the inhibition is -3.06%.
On to `Cc1cccc(C)c1NC(=O)N1C2CCCC1CC(NC(=O)C(C)(C)C)C2` (stereo unspecified), for which the inhibition is active: 37.5%.
`Cn1c(C(=O)NCCN2CCc3ccccc3C2)cc2c(=O)n(C)c3ccccc3c21`: the inhibition was active: 48%.
For `Cc1ccc(C)c(NC(=O)CSc2nc(-c3ccccc3)c(C#N)c(=O)[nH]2)c1`, the inhibition was 4.14%.
As for `COc1ccc(S(=O)(=O)c2c(Nc3c(C)cccc3C)sc(C(=O)c3ccc(F)cc3)c2N)cc1`, the inhibition is -18.3%.
With `COC(=O)c1ccccc1NC(=O)C1=CC(c2ccc3c(c2)OCO3)=NS(=O)(=O)N1C`, the inhibition is 6.06%.
Regarding `Cc1ccc(CNc2nc3ccc(Cl)cc3n3cnnc23)cc1`, the inhibition turned out to be 7.47%.
In the case of `CCc1cccc(C)c1Nc1c(-c2ccc(SC)cc2)nc2sccn12`, the inhibition is 8.22%.
Regarding `Cc1cccc(NC(=O)Cn2c(=O)n(Cc3ccccc3)c(=O)c3sc4ccccc4c32)c1`, the inhibition came out at 25.6%.
Consider `Fc1ccc(-c2noc3ncnc(Nc4ccc(F)cc4F)c23)cc1`, for which the inhibition turned out to be 8.81%.
With `CCOc1ccc(N(C(=O)c2ccc(Cl)cc2)S(=O)(=O)c2ccc3c(c2)n(C)c(=O)n3C)cc1`, the inhibition was 6.41%.
As to `O=C(CC1N=C2c3ccccc3N=C(SCc3ccc(F)cc3)N2C1=O)NC1CCCCC1` (stereo unspecified), the inhibition came out at 5.11%.
Take `CCOc1ccc(CCNC(=O)c2cccc(Nc3nc4ccccc4nc3-n3nc(C)cc3C)c2)cc1OCC`: the inhibition was -0.843%.
Regarding `Cc1ccc(C(=O)Nc2ccccc2C(=O)OCc2cc(=O)n3nc(C(C)C)sc3n2)cc1`, the inhibition was -5.4%.
`Cc1ccc(C)c(NC(=O)CN(C)S(=O)(=O)c2cccc3cccnc23)c1`: the inhibition turned out to be 1.2%.
